According to the supplement of paper PMC11417369:
This is one part of the list.

system: PfAP2-HC AP2 domain (GST-tagged); experiment: gcPBM binding intensity (ln(normalized median fluorescence intensity)); higher = stronger DNA binding
In short: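 Alexa488 anti-GST antibody, scanned at 488 nm, detected GST-tagged P. falciparum DNA-binding domains that had been expressed in E. coli and incubated for 1 h on an Agilent 4 × 180k array. The array carried primer-extended double-stranded 36-bp intergenic genomic probes and negative controls. Binding intensity is the highest Masliner-normalised natural-log median intensity across replicate spots of either orientation of each probe.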

Row | Sequence | gcPBM binding intensity (ln)
1 | TTATTCACTTCTTTTTAAAAAAAAAAAAAAAAAAAA [CACACA_negctrl_site223] | 8.85
2 | TTGTTAATGGTACGAACACACATATAAAGATGCATA [CACACA_site2044] | 9.68
3 | ATTTCGAATATTAAGTGTACAATATAAATATATAAA [XGTACX_site6674] | 9.54
4 | TTATATGAATTTTAGATTTATAATACAAGAATATTC [CACACA_negctrl_site70] | 9.31
5 | ATTAAATACATTAACACACACACAAATATGTACATA [CACACA_site7372] | 11
6 | ATATTATATAATATACGTACATATATTATGCATAAA [XGTACX_site7895] | 9.6
7 | TACGTAGCCACACTAACACACACAAATATGCACAAT [CACACA_site8942] | 10.9
8 | TTTTTTTCTGTGAGTGCATGTAATAAAATAAATTTA [TGCATGCA_site276] | 9.17
9 | TTCAAAAATATATAATGTACACAAATATAAAAGAAT [XGTACX_site1944] | 9.81
10 | TGTTATTTTAAAAAAAAAATTATTAACTTAAAAAAA [CACACA_negctrl_site1641] | 9.23
11 | TTACTTAAGAAACACACACACAAAAAAAAAAAAAAA [CACACA_site946] | 10.1
12 | ATCATAATCATAAAAAGTACAAACGATAAAATAAAT [XGTACX_site3832] | 9.89
13 | TATGTAAAAAATTTAACACACACATATATATATATA [CACACA_site8829] | 10.4
14 | TATTATTCATAATTTATCTTTTAAATTAAATCACAA [GTGCAC_negctrl_site288] | 9.1
15 | TATTTATAATAGTGTACACAATTATAAACTGAATAT [CACACA_site6041] | 9.72
16 | TATTATTGTCTTTCAAAAAAAAAAAAAAAAAAAAAA [CACACA_negctrl_site1242] | 8.61
17 | CAACATATATTAATATGTACATATATATAGATATAT [XGTACX_site4107] | 9.66
18 | CACAGATAAATTAACACACACACACCCATATATATA [CACACA_site3960] | 10.5
19 | CTTTTTGAAATATTAACACACATTTTGTTAATTAAT [CACACA_site4046] | 9.73
20 | ATAATATAACACAAATGTACAAAAAATAAATAAATA [XGTACX_site385] | 9.82
21 | CATACTCACCAACACACACACACACCCATATAGAAT [CACACA_site592] | 11.1
22 | TATATATATACTTAATGTACATATATATATATATAT [XGTACX_site3102] | 9.66
23 | ATAAAAATACAGTTAACACACATGTGTATTTATATG [CACACA_site7727] | 10.2

Row | Sequence | gcPBM binding intensity (ln)
24 | GAAAACGTTTGAAGTTGTACATATGTATAAAAAGAA [XGTACX_site2304] | 9.85
25 | ATGGTCTGTTAAAGATGTACTTTTTAAAAATAAACG [XGTACX_site2583] | 9.38
26 | AAAAGGAAGATATATACACACATACAAATATATATA [CACACA_site5236] | 10.1
27 | CTATTTGGGGGAAGAGTGCATGACATGAATATAAAA | 9.64
28 | CTATATTATAAATATACACACATATCTTAAGTATAA [CACACA_site3096] | 9.71
29 | ATTAGTATTAGATGATGTACATTTATATTGAAATAT [XGTACX_site8537] | 9.63
30 | TTGATGTATACAATGTAGATTATTTAATATTTCAAC [CACACA_negctrl_site73] | 9.6
31 | TTTTTTTTTTTTTTCACACACTAATAATATTATCAT [CACACA_site4417] | 9.78
32 | ATAAATTTTTAAAAATATGAATTATGTAATTTGTGA [CACACA_negctrl_site1621] | 9.64
33 | CATATAATAAATAGATGTACAGACTATATATATATA [XGTACX_site6575] | 9.79
34 | TTTATATGATACACACGTACATATACACATATACAC [XGTACX_site8123] | 10.1
35 | TATATATATATTTTTGCACACATTTTTTAAGGTACA [CACACA_site2145] | 10.2
36 | TATAATATTTATATAACACACATATAGATTTATTTA [CACACA_site6269] | 9.57
37 | AATAGGAAAGATTTTGCATGTGATATAAGTAATTTT [TGCATGCA_site657] | 9.46
38 | ATGTAAAATTAATATTGTACTTTTCCATCATGATAC [XGTACX_site2669] | 9.55
39 | TATATTAAAGGGGTTTCACACACATGTATAATTAAT [CACACA_site7950] | 10.2
40 | TATTATTTAATCAAATGTACATAGAAAATGTATGTA [XGTACX_site4433] | 9.45
41 | ATATATATTATAATCTGTACATAAATATATAATAAA [XGTACX_site5425] | 9.62
42 | TTGTTTTATACATAGTGTACATATAAAAATTTTTTT [XGTACX_site7549] | 9.57
43 | ATTTTCCCTAGAATATGTACACATAGTAAATATTAT [XGTACX_site7499] | 9.68
44 | ATATATAAATATGAAACACACATTCTATTTAATTCG [CACACA_site1450] | 9.75
45 | CAGATAAATAAACACACACACACATATATATATATA [CACACA_site9311] | 10.3
46 | AAATAAAGAAATGCAAGTACATACTAAACTAATCCA [XGTACX_site1209] | 10

Row | Sequence | gcPBM binding intensity (ln)
47 | AAAAAAAAAAAAGAAAAATATATATATAAATAAATA [GTGCAC_negctrl_site569] | 9.47
48 | ATATGTACAAATTATACACACATGTACAATTATATA [CACACA_site1253] | 9.84
49 | ATGTCACAATTTTTCACACACAAAATTTATATACAT [CACACA_site2030] | 10.1
50 | TATGTTTCTATATATACATGCAAGAAGAAATGTACT [TGCATGCA_site891] | 9.54
51 | CAAAAGGATAGGCACACACACACACCGATATATATA [CACACA_site8685] | 10.7
52 | GAATATTAATTCAAGTGTACAAATATATATATAATT [XGTACX_site5103] | 9.73
53 | GTTAATATTTTTGGGGGTACTTAAAAAAAAAAAAAA [XGTACX_site1477] | 9.39
54 | AATTTAAAAAATAATTGTACAAAAAAAAAAAATCAG [XGTACX_site4576] | 9.78
55 | TTACATACAATTGGTGTGCACATATATATATATATA | 9.89
56 | TATGTTTTTGAATGAGTGCATTAAAATAAAACATTT | 9.53
57 | TTCTTGTATATTCATAGTACATATAATGTCGTGTTA [XGTACX_site8991] | 9.79
58 | ATAATATAAATATACACACACACATATATATATATA [CACACA_site2905] | 10.8
59 | TAATAAGGAATTTATAGTACATATTCATATGTTTTA [XGTACX_site2331] | 9.44
60 | ATAAAAATTTATATATGTACTTAATTTTTAATTTTT [XGTACX_site7482] | 9.54
61 | AAAAAAAAAAAAAACACACACACACGCATACACATA [CACACA_site7364] | 10.7
62 | AAGAGGATACACAATGTGCACTTTTTTTTTTTTTTT [GTGCAC_site9415] | 9.63
63 | TATACAGATATATATACACACATATATATAAATACA [CACACA_site4383] | 9.97
64 | ATAAATAAAACAAATAGTACAATATAAAAAAAAAGG [XGTACX_site87] | 10.1
65 | TATATATATAATATATGTACTCATATTAAGAGATAC [XGTACX_site1354] | 9.57
66 | TATATATGTATATTTTGTACGTATTTATTTACATGA [XGTACX_site4584] | 9.68
67 | AATGAGCTTTTTAAAAGTACTAAATATAAATAAATA [XGTACX_site3632] | 9.5
68 | TATATTTATACTTATACACACATTATTGAATTAACC [CACACA_site934] | 9.78
69 | ATTATTTATATTTGGAGTACTTATAATATTTTTATA [XGTACX_site1289] | 9.63

Row | Sequence | gcPBM binding intensity (ln)
70 | TATAGGTATTTGTATACACACAAATGTATATATCTA [CACACA_site6713] | 9.74
71 | AGTGTAAGCTAAGTGGTGCGTTGAATAAGGTTTTTT [GTGCAC_site9951] | 9.65
72 | AAAATATTTATTCCTAGTACTTACCATTATATATAT [XGTACX_site363] | 9.74
73 | AAAAAAAAATGAAAAGAAAAAAAAAGAAAAAAGGGA [CACACA_negctrl_site287] | 9.72
74 | CTTTATATATTTTATTGTACTTAAAAAAAAAAAAAA [XGTACX_site2134] | 9.15
75 | AAAAAATATGCATATACACACATATGTATAAATAAC [CACACA_site7090] | 10.1
76 | TCTTTGGTATTTACATGTACATATTCTTAAAAACAT [XGTACX_site3124] | 9.88
77 | TGTATAGTCTAAAGTTGTACAAAAAAAAAAAAAAAA [XGTACX_site5764] | 9.31
78 | GAAAATAAAATATTAGTGCATTATTTGATCAATAAT | 9.56
79 | AATAGTTGCTAAAGGTGTACAATACATTTATTAGAA [XGTACX_site2773] | 9.8
80 | TATTACTTAAATAAAAGTACATATAACATTTTAGTT [XGTACX_site196] | 9.47
81 | CATTCCTATTATTATACACACAAATTAAGAATTCAA [CACACA_site787] | 9.51
82 | ATGTCATAAAAACATATACACACTTGAAATATAAAA [CACACA_site2329] | 9.86
83 | ATAAATATTGCGTGCACACACATAATATTTATATAT [CACACA_site7136] | 9.95
84 | TATAATATATTCATGTGTACATATATTTCGAACATA [XGTACX_site1754] | 9.66
85 | CGAAAAATATGTATGAGTACTTATATTTAAACTATA [XGTACX_site1911] | 9.57
86 | AAAAAAAAAAAAAAAACACACAAACGCTTTTTTTTT [CACACA_site4545] | 9.71
87 | GGATAAGAGGCATATACACACAATTTAAAAAAATAA [CACACA_site4657] | 9.82
88 | ATTTTTTTGTTAATTTGTACATAAAATTTTATTTTA [XGTACX_site7007] | 9.65
89 | ATATTTATTTTATAAAGTACTAAAAAATATATTATA [XGTACX_site8522] | 9.19
